According to paper PMC7297730:
Residue numbers refer to the chain shown, from its start. These are yes or no findings as the source states them, for the method shown. Some binding calls cover weakened binding; strength is not graded here. Blank lines part the entries; values can stand above or below the binder they belong to.

Legend:
Gal4BD-SMC5 (S. pombe) [1] = molecular target: T1, Gal4BD-SMC5 (S. pombe) (UniProt O13710); experiment: two-hybrid; 5Y2H: Gal4BD-SMC5 + Gal4AD-SMC6 + non-hybrid Nse4, Nse3 and Nse1 (p416ADH1-Nse4+Nse3+Nse1); plates with increasing 3-aminotriazole
T1 sequence: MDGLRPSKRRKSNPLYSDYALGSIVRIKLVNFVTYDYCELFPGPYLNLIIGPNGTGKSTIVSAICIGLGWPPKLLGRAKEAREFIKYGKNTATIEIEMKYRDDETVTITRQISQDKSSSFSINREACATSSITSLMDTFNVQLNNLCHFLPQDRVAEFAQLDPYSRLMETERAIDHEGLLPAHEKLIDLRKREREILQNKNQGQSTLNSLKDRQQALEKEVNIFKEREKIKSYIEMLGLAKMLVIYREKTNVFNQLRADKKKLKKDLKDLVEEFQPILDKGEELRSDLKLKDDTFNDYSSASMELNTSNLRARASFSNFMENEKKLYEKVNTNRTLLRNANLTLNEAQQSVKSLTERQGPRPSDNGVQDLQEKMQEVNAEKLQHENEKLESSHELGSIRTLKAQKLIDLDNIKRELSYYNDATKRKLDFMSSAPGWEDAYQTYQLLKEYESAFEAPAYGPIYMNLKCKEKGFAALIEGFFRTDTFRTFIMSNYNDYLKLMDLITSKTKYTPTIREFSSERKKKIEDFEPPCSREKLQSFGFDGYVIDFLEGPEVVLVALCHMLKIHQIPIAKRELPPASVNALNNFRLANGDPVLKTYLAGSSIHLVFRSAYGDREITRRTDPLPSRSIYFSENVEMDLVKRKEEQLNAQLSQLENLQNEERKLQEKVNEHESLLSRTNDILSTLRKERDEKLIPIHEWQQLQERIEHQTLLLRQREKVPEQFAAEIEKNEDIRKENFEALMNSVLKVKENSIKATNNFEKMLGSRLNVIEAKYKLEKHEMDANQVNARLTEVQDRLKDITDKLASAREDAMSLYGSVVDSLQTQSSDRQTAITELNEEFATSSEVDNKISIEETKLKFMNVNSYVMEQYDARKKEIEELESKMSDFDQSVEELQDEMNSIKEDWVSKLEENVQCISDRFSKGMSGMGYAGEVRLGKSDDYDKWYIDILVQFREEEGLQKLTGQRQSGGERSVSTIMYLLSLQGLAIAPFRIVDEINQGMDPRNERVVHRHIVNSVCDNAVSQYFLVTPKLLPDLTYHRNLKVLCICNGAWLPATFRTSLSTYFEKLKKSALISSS

Gal4BD-SMC5 (S. pombe) [2] = molecular target: T1, Gal4BD-SMC5 (S. pombe); experiment: two-hybrid; 3Y2H: Gal4BD-SMC5 + Gal4AD-SMC6 + non-hybrid Nse4 (p416ADH1-Nse4); -L,T,U,H plates with 0.5 mM or increasing 3-aminotriazole, 28 °C
[3] = molecular target: T2, Gal4BD-SMC5 E995Q (S. pombe) (UniProt O13710); experiment: as above
T2 sequence: T1 sequence with E995Q

Gal4BD-Nse4 (S. pombe) = molecular target: T3, Gal4BD-Nse4 (S. pombe) (UniProt Q6BDR8); experiment: two-hybrid; 4Y2H: Gal4BD-Nse4 + Gal4AD-SMC6 + non-hybrid Nse1 and Nse3 (p416ADH1-Nse1+Nse3); -L,T,U,H plates with 0.3 mM 3-aminotriazole, 28 °C
T3 sequence: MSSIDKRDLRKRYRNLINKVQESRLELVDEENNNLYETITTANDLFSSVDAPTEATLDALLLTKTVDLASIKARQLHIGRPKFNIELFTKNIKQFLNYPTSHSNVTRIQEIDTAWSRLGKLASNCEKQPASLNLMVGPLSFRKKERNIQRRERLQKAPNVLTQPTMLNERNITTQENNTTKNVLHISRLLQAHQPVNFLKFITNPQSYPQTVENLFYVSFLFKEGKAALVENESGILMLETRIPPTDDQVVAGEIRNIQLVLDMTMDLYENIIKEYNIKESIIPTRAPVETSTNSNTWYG

[4] = molecular target: T4, Nse4 (aa1-300), non-hybrid (S. pombe) (UniProt Q6BDR8); experiment: two-hybrid; 5Y2H: Gal4BD-SMC5 + Gal4AD-SMC6 + non-hybrid Nse4, Nse3 and Nse1 (p416ADH1-Nse4+Nse3+Nse1); plates with increasing 3-aminotriazole
T4 sequence: T3 sequence

[5] = molecular target: T5, Nse4 L62C, T65R double mutant, non-hybrid (S. pombe) (UniProt Q6BDR8); experiment: as above
T5 sequence: T3 sequence with L62C, T65R

[6] = molecular target: T6, Nse5-Nse6 (Gal4BD-Nse5 with non-hybrid Nse6) (S. pombe) (UniProt O94668+O13688); experiment: two-hybrid; 3Y2H: Gal4AD-SMC6 + Gal4BD-Nse5 + non-hybrid Nse6 (p416ADH1-Nse6); -L,T,U,H plates with 3 mM 3-aminotriazole
T6 sequence 1: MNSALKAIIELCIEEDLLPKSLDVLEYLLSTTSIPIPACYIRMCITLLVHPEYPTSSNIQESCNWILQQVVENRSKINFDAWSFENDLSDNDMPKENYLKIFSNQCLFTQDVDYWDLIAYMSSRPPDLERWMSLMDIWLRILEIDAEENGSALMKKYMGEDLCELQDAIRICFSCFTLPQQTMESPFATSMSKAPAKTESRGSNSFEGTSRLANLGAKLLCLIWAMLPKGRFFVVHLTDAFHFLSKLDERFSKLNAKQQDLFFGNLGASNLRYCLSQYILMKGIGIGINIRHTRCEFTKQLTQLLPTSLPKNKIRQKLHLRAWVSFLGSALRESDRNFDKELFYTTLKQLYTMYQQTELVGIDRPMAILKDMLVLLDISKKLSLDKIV
T6 sequence 2: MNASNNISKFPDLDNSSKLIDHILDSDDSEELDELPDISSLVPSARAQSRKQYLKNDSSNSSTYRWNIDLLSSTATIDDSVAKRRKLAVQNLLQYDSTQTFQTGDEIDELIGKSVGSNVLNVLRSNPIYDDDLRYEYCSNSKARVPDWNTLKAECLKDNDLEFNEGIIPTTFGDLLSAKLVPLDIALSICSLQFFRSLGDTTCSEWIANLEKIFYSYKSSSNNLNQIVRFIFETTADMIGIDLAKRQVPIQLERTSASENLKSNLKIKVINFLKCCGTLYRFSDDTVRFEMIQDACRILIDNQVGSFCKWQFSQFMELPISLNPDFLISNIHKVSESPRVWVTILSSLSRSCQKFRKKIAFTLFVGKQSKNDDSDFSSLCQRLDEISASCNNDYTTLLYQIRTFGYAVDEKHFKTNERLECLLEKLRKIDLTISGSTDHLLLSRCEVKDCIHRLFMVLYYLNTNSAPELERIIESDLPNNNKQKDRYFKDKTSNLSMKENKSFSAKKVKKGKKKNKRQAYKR

[7] = molecular target: T4, Nse4 (aa1-300), non-hybrid (S. pombe); experiment: two-hybrid; 3Y2H: Gal4BD-SMC5 + Gal4AD-SMC6 + non-hybrid Nse4 (p416ADH1-Nse4); -L,T,U,H plates with 0.5 mM or increasing 3-aminotriazole, 28 °C
[8] = molecular target: T5, Nse4 L62C, T65R double mutant, non-hybrid (S. pombe); experiment: as above

- binding (Gal4BD-SMC5 (S. pombe) [1]): binds
- binding (Gal4BD-SMC5 (S. pombe) [2]): binds
- binding [3]: binds
B1: Nse4 (aa1-300), non-hybrid (protein, UniProt Q6BDR8 1-300)
chain: T3 sequence

- binding (Gal4BD-Nse4 (S. pombe)): binds
- binding [4]: binds
- binding [5]: binds weakly
- binding [6]: binds
- binding [7]: binds
- binding [8]: binds weakly
B2: Gal4AD-SMC6 (protein, UniProt P53692 1-1140)
chain: MTTELTNVSLEEAITEKTSENRRKRDSDVLQTEEVDLSNVKRIRASRNQDNRPERQSRLQRSSSLIEQVRGNEDGENDVLNQTRETNSNFDNRVGVIECIHLVNFMCHDSLKINFGPRINFVIGHNGSGKSAILTGLTICLGAKASNTNRAPNMKSLVKQGKNYARISVTISNRGFEAYQPEIYGKSITIERTIRREGSSEYRLRSFNGTVISTKRDELDNICDHMGLQIDNPMNILTQDTARQFLGNSSPKEKYQLFMKGIQLKQLEENYSLIEQSLINTKNVLGNKKTGVSYLAKKEEEYKLLWEQSRETENLHNLLEQKKGEMVWAQVVEVEKELLLAEKEFQHAEVKLSEAKENLESIVTNQSDIDGKISSKEEVIGRAKGETDTTKSKFEDIVKTFDGYRSEMNDVDIQKRDIQNSINAAKSCLDVYREQLNTERARENNLGGSQIEKRANESNNLQREIADLSEQIVELESKRNDLHSALLEMGGNLTSLLTKKDSIANKISDQSEHLKVLEDVQRDKVSAFGKNMPQLLKLITRETRFQHPPKGPMGKYMTVKEQKWHLIIERILGNVINGFIVRSHHDQLILKELMRQSNCHATVVVGKYDPFDYSSGEPDSQYPTVLKIIKFDDDEVLHTLINHLGIEKMLLIEDRREAEAYMKRGIANVTQCYALDPRNRGYGFRIVSTQRSSGISKVTPWNRPPRIGFSSSTSIEAEKKILDDLKKQYNFASNQLNEAKIEQAKFKRDEQLLVEKIEGIKKRILLKRREVNSLESQELSVLDTEKIQTLERRISETEKELESYAGQLQDAKNEEHRIRDNQRPVIEEIRIYREKIQTETQRLSSLQTELSRLRDEKRNSEVDIERHRQTVESCTNILREKEAKKVQCAQVVADYTAKANTRCERVPVQLSPAELDNEIERLQMQIAEWRNRTGVSVEQAAEDYLNAKEKHDQAKVLVARLTQLLQALEETLRRRNEMWTKFRKLITLRTKELFELYLSQRNFTGKLVIKHQEEFLEPRVYPANRNLATAHNRHEKSKVSVQGLSGGEKSFATICMLLSIWEAMSCPLRCLDEFDVFMDAVNRLVSIKMMVDSAKDSSDKQFIFITPQDMGQIGLDKDVVVFRLSDPVVSSSALPPSTAP
